Laboratory results from article PMC4336329 (PLoS ONE, 2015).
The campaign covered roughly 310,000 compounds. About 2,200 (0.71%) showed an effect of 50% or more. The effect is printed as a negative number. The list shows a part of the results.

The compounds below were run against human ether-à-go-go-related gene (hERG) potassium channel (human, UniProt Q12809) (assay: primary screen, population patch clamp on CHO cells stably expressing hERG).
Sequence of human ether-à-go-go-related gene (hERG) potassium channel (Q12809 whole entry, looked up): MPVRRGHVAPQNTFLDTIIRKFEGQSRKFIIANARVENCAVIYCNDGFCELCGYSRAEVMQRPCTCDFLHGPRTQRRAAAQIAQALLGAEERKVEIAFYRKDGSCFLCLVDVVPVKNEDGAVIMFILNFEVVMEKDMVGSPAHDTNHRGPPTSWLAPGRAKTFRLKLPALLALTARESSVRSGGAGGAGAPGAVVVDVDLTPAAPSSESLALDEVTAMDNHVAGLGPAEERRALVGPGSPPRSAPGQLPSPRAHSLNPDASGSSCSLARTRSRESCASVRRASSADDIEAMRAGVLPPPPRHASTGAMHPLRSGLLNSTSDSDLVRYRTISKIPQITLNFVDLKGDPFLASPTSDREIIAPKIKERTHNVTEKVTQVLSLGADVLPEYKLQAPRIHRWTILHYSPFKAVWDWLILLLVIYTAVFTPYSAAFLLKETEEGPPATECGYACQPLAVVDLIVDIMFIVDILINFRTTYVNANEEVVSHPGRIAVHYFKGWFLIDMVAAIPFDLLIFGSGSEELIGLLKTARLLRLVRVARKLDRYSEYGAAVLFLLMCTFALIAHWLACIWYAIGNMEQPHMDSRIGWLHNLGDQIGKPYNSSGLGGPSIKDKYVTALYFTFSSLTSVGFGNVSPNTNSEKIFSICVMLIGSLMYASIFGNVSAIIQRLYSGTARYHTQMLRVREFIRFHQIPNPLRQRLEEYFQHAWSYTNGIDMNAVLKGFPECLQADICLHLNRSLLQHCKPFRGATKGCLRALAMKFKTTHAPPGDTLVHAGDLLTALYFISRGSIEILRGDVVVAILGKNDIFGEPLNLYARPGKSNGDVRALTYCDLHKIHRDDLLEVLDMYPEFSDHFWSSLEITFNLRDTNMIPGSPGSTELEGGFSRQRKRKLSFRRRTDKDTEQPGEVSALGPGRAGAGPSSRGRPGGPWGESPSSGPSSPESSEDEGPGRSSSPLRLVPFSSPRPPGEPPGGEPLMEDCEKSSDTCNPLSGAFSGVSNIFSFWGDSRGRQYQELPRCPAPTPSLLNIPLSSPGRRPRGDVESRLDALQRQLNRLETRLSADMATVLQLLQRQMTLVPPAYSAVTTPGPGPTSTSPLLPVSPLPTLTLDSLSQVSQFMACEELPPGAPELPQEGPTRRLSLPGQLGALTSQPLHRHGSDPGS

SMILES | hERG current change (%, negative = inhibition) at 1uM [%]
NC(=S)N/N=C/c1cccc(/C=N/NC(N)=S)c1 | 11.7
CCc1noc(C)c1C(=O)N(CCC(C)C)c1c(N)n(Cc2ccccc2)c(=O)[nH]c1=O | -8.9
Cc1cc(C)n2nc(C(=O)OCC(=O)NC3CCCCC3)nc2n1 | 13.7
Cc1nc(/C=C/c2ccccc2)[nH]c(=O)c1-c1ccccc1 | 15.9
COc1cc(OC)c(C(=O)Nc2cc(Cl)ccc2-n2cncn2)cc1OC | -16.5
CC1CCCC(NC(=S)Nc2ccc(SC(F)F)cc2)C1C (centres unmarked) | -0.956
Cc1ccc(C(=O)NC2CCCCNC2=O)cc1C (centres unmarked) | 12.8
Cc1ccc(C(=O)Nc2ccccc2C(=O)NCC2CCCO2)cc1 (centres unmarked) | 1.56
COCCN(Cc1nnc(-c2cccs2)o1)C(=O)c1cccc(S(=O)(=O)N2CCOCC2)c1 | 6.12
COC(=O)C1=C(C)Nc2ncnn2C1c1ccc(OC(=O)c2ccccc2)cc1 (centres unmarked) | 8.82
Nc1cc(C(=O)OCC(=O)N2CCC(Cc3ccccc3)CC2)ccc1Cl | -1.43
COC(=O)c1ccc(NC(=O)CN2CCN(CCO)CC2)cc1.Cl | -0.87
CC(NC(=O)COC(=O)C1CCN(c2ccc(C(F)(F)F)cn2)CC1)c1ccc(F)cc1 (centres unmarked) | 14.2
O=C(Nc1nnc(SCC(=O)N2CCOCC2)s1)C1CC(=O)N(c2ccccc2)C1 (centres unmarked) | 22.6
Cc1noc(NS(=O)(=O)c2ccc(NC(=O)CC34CC5CC(CC(Br)(C5)C3)C4)cc2)c1C | 15.2
CC(C)(C)C(=O)Nc1cc2c3c(c1)CCN3C(=O)CC2 | 15.1
COc1ccc(-c2nc3ccccn3c2/N=C/c2ccc(OC)c(OC)c2)cc1O | -42.7
CCOc1ccc(NCc2nc3ccccc3n2CCOc2ccccc2)cc1 | 5.34
Cl.NCc1cc2c3c(c1)CCCN3CCC2 | 15.4
O=c1c2ccccc2nc(/C=C/c2ccc3c(c2)OCO3)n1-c1ccccc1 | 3.51
FC(F)(F)c1cccc(N2CCN(C(=S)NC3CCCC3)CC2)c1 | 12.5
CCCC(NS(=O)(=O)c1ccc(-c2ccc(=O)[nH]n2)s1)c1cccs1 (centres unmarked) | 5.65
COCCNC(=O)CSc1nc2cc3c(cc2c(=O)n1Cc1ccco1)OCO3 | -10.3

SMILES | hERG current change (%, negative = inhibition) at 1uM [%]
Nc1ccccc1S(=O)(=O)c1ccccc1N | 15.2
CCOC(=O)N1CCC(NC(=O)c2cccnc2SC)CC1 | 19.7
CCOc1ccc(S(=O)(=O)N(CC(=O)Nc2cc(C)on2)Cc2ccccc2Cl)cc1 | 9.6
O=[N+]([O-])c1cc([N+](=O)[O-])c(Oc2cc(F)cc(F)c2)cc1NN1CCCCC1 | 18.3
Cc1cccc(NC(=O)c2ccc(NS(=O)(=O)c3c(C)noc3C)cc2)c1 | -17.2
COc1ccccc1CCN=C(N)NS(=O)(=O)c1ccccc1F | 4.21
Nc1nonc1-n1nnc(C(=O)N/N=C/c2ccc(Br)cc2)c1CN1CCOCC1 | 8.62
COc1ccc(C=O)cc1Cn1cnc2c(cnn2C)c1=O | 4.7
Cc1nn(CC(=O)N2CCOCC2)c(C)c1[N+](=O)[O-] | 4.38
O=C(NC(N1CCOCC1)C(Cl)(Cl)Cl)c1ccc(F)cc1 (centres unmarked) | 9.45
O=C(CS(=O)Cc1ccccc1Cl)Nc1ccccc1Cl (centres unmarked) | 15.5
Cn1ncc2c(O/N=C(\N)c3ccc(C(C)(C)C)cc3)ncnc21 | 11.6
CCCN(CCC)Cc1cc(=O)oc2cc3c(cc12)CCC3 | 11.4
CCCCCCOc1ccc(/C(C)=N/NC2=NCCN2)cc1[N+](=O)[O-] | -49.4
Cc1c(NC(=O)Nc2ccc(Cl)cc2Cl)c(=O)n(-c2ccccc2)n1C | 5.54
CCOC(=O)c1[nH]c2ccccc2c1NC(=O)C1CCCCC1 | 18.7
Cc1nc2c(Cl)c(C)nn2c2c1CCC2 | -2.28
CC(C(=O)N1CCCCCC1)c1ccc([N+](=O)[O-])cc1 (centres unmarked) | 4.63
CCCn1c(C(CO)Nc2nc(C)cs2)nc2ccccc21 (centres unmarked) | 2.93
CCC(C)[C@H](NC(=O)[C@H](Cc1ccccc1)n1c(=O)[nH]c2ccccc2c1=O)C(=O)N1CCC[C@@H]1C(=O)O (some centres unmarked) | 11.4
O=C(Nc1cc(C(F)(F)F)ccc1N1CCOCC1)c1cccnc1Cl | 6.31
COc1cc(C=C2C(=O)c3ccccc3C2=O)ccc1O | 8.84
Cc1ccc(N(C(=O)C(F)(F)F)C(C(=O)NC2CCCCC2)c2cccs2)cc1C (centres unmarked) | 12.3

SMILES | hERG current change (%, negative = inhibition) at 1uM [%]
O=c1c(-n2cncn2)c[nH]n1-c1cccc(Cl)n1 | 12.2
COc1ccc(CN(CC(=O)NC2CCCC2)C(=O)c2ccc(-c3ccccc3)[nH]2)cc1 | 0.812
COC(=O)c1cc(O)c(O)c(O)c1 | 6.96
O=[N+]([O-])c1ccc2c(c1)nc1n2CCN(CC2CCCO2)C1 (centres unmarked) | 4.12
CCC(=NCc1ccc(F)cc1)c1c(O)n(C)c(=O)n(C)c1=O | -3.9
CCOC(=O)C1=C(c2ccccc2)NC(=O)NC1c1cc(Br)c(O)c(OC)c1 (centres unmarked) | 8.6
CC(=O)NC(CCS(C)(=O)=O)C(=O)Nc1ccc2c(c1)OCCO2 (centres unmarked) | -2.18
CC(C)C(C(=O)Nc1nccs1)c1ccccc1 (centres unmarked) | 7.7
O=C(Cc1ccc(S(=O)(=O)N2CCOCC2)s1)N1CCN(S(=O)(=O)c2ccc(Cl)cc2)CC1 | -5.52
O=C(Nc1cccc(Cl)c1)c1cc(S(=O)(=O)NCCc2ccc(Cl)cc2)ccc1F | 11.9
CCn1c(SCC(=O)Nc2ccccc2)nc2nc3c(cc2c1=O)COC(C)(C)C3 | -12.4
CC(C)c1ccc(C(=O)Nc2nnc(S(=O)(=O)N3CCOCC3)s2)cc1 | -2.75
O=C(Nc1ccc(S(=O)(=O)NC2=NCCCCC2)cc1)c1ccco1 | 6.55
O=S(=O)(Cc1ccccc1)Nc1ccc(S(=O)(=O)NCC2CCCO2)cc1 (centres unmarked) | -0.919
C[C@H]1CN=C(N(C)C)N1CCCC1CCCC1 | -6.72
O=C(Nc1ccc(-c2csc(Nc3ccccc3)n2)cc1)c1ccccc1 | 14.3
CC1CCN(C(=O)CSC2=NS(=O)(=O)c3cc(F)ccc3N2)CC1 | 6.34
COc1cc(Cl)c(S(=O)(=O)NCCCn2ccnc2)cc1Cl | 12.3
Cc1cc(N2CCOCC2)n2nc(-c3cccc(F)c3)cc2n1 | 4.77
CC(C)N(C(=O)C(F)(F)F)C(C(=O)NC1CCCCC1)c1ccncc1 (centres unmarked) | 4.94
COc1ccc(S(=O)(=O)Nc2ccc(S(=O)(=O)N3CCCCC3)cc2)cc1OC | 5.82
S=C(NCc1ccc2c(c1)OCO2)NCc1ccco1 | 10.8
CCOC(=O)C1CCCN(C(=O)c2cc3ccccc3oc2=O)C1 (centres unmarked) | 12.8

SMILES | hERG current change (%, negative = inhibition) at 1uM [%]
CC(C)Oc1ccc(C2C(C(=O)c3ccco3)=C(O)C(=O)N2Cc2cccnc2)cc1 (centres unmarked) | 16.9
CC(=O)Nc1ccccc1-c1nnc(SCc2ccccc2Cl)[nH]c1=O | 11.7
Cc1ccc(C(=O)NCC(c2ccco2)N2CCCCC2)s1 (centres unmarked) | -10.9
NC(=O)CC(NC(=O)Cc1ccc(Cl)cc1)c1ccc(NCCN2CCOCC2)c([N+](=O)[O-])c1 (centres unmarked) | 15.4
Cc1cccc(NS(=O)(=O)c2cccs2)c1 | 10.7
O=C(NCc1ccc2c(c1)OCO2)C(=O)NCC1CCCO1 (centres unmarked) | 9.79
COc1ccc(/C(O)=C2\C(=O)C(=O)N(CCN(C)C)C2c2cc(OC)c(OC)c(OC)c2)c(C)c1 (centres unmarked) | 3.85
Cl.O=C(NCCCN1CCOCC1)c1ccc(Cl)c(S(=O)(=O)N2CCCCCC2)c1 | -18.9
CS(=O)(=O)NCc1ccc(C(=O)NCc2ccccc2)cc1 | 10.6
C=COCCNC(=S)Nc1ccccc1 | 12
Cc1cccc(C(=O)NC(NC(=S)Nc2ccc(S(N)(=O)=O)cc2)C(Cl)(Cl)Cl)c1 (centres unmarked) | 20.3
O=C(NCCCC1CCCC1)C1CCC(=O)N(Cc2cccc(C(F)(F)F)c2)C1 (centres unmarked) | 5.47
CN(C)C(=O)Cn1c(SCC(=O)N2CCCc3ccccc32)nc2ccccc21 | 5.13
CC(C)N1CCN(Cc2ccccc2C(F)(F)F)CC1CCO (centres unmarked) | 2.24
C=CCNC(=S)NNC(=O)COc1ccc(Br)cc1 | 7.76
Cc1cc2c(cc1C)NC(c1c(C)n(C)n(-c3ccccc3)c1=O)C1=C(CC(C)(C)CC1=O)N2 (centres unmarked) | -1.71
COC(=O)Cc1ccc(NC(C)=O)cc1 | 6.94
COC(=O)C(NC(=O)c1ccco1)(Nc1nc(C)cs1)C(F)(F)F (centres unmarked) | 3.78
Cc1ccc(CN(C(=O)N2CCN(C)CC2)S(=O)(=O)c2ccc(C)cc2)cc1 | 0.555
CCCCn1c(N)c(N(CCOC)C(=O)CN2c3ccccc3CC2C)c(=O)[nH]c1=O (centres unmarked) | 13.7
